# In the RNAGym collection of RNA variant scans (doi:10.7554/elife.90254):
# The source gives no read counts; variants with many changes may rest on few reads.
# B1: LINE1-mini (parent)
# chain: GGCAGAGCUCAACACAGCGUGGCAAAGUGGCUGUGGCUAGACUGCC
# Variants of: B1
# Assay: self-cleavage, relative activity (ratio to wild type); higher = more cleavage; in vitro, sequencing; the parent is a self-cleaving ribozyme
row,Variant,self-cleavage
1,A16C C23U G27U C45G,0.02
2,C10A A24G U34A A41C,0.01
3,G22U A24G U28C,0.18
4,G5U G7A C10G G21U,0.01
5,G1A A6G A16U U28C,0.07
6,G1U G27U G36C C37A,0.04
7,C13A G27C G36A,0.25
8,G5A C18U G19A G21U,0.22
9,A16G C31A U34C G44C,0.01
10,G2C A14C C15U G17U G21U U32A C42A,0.03
11,U9A G27U C31A,0.05
12,G7A U9G G29U,0.06
13,A4G G33A C37G A41C,0.18
14,C3U G17U G30C C31A,0.6
15,G2A C13A A25U C31G G35C A39G,0.08
16,A12G C23G G35U,0.01
17,G1A A12G C31A,0.09
18,C10U A11U C15U G21C,0.06
19,C13A U20A U34G,0.02
20,U9C G22A G36C U43G,0.01
21,C8G C13A U34C,0.16
22,A16U G21U G33U,0.02
23,A4U G21U G22U G33U C46G,0.18
24,C15A G22A U28G,0.04

row,Variant,self-cleavage
1,C8G A12G A24U G40U,0
2,C13A A39U A41G,0.07
3,C8A A26C U28G U32C,0.09
4,G7C G21U C46U,0.08
5,U9A A25U U32C U38C,0.03
6,U9G A14U G21U,0.02
7,G1A U9G G35A C37U,0.53
8,U9G A24U G40C,0.06
9,C3U U38A C45A,0.14
10,A6U C18U U20G C46U,0.11
11,C3A C23U U38C,0.37
12,A16U A24C G35C C42G,0.01
13,U20C A24U G35A,0.01
14,C13U A16U G27C G29A G30U C31A,0.04
15,A12G C13G G36U,0.04
16,G7C G21A C31G,0.03
17,A6G G17A C18U C23A,0.03
18,A16C A25G C31G U43G,0.04
19,C8A A14U A16U G21U U32G,0.02
20,G2C G17U C42A C46G,0.02
21,A12C G17U U28C G29U U34C U38G U43C G44U,0
22,C3G G30C U38A,0.36
23,C15A C37G C42G,0.02
24,A11U G17U U20G G44U C46U,0.02

row,Variant,self-cleavage
1,C23A U32G G36U,0.1
2,U28G U32G G36A C45U,0.02
3,G1A G5C A11G C23A C46G,0.01
4,G5U U38G G44U,0.02
5,G17A U38C A41C,0.03
6,G19U A24C G29A,0.43
7,U9A A26G U38C A39C U43A,0.07
8,G22U G29C U43C,0.03
9,A4U C23A C37A,0.04
10,U9C U20C G33U G40U,0.04
11,C13A G19A G44C C46U,0.03
12,A6U U9C C13G,0.12
13,C3U A11C A25U A41C,0.03
14,G2A C3U C8G C10A C13A,0.06
15,A4C G21C G35U,0.23
16,A4U G5U C18U U20G U32G,0.01
17,G1C A6U U9C C31G G35U C37G,0
18,G1U C8A G17U G22U,0.07
19,G1C C13A G22U U32C G33A G40A,0.02
20,G2U C18G U28A C31A G33A,0.01
21,C8A C10A A26U G40A,0.01
22,G2U C8A G30C C37A U38A C46U,0.23
23,G1U C8G A11U C13G G29A,0.01
24,G27U U38A C45U,0.9

row,Variant,self-cleavage
1,C10A C13A U43C,0.02
2,G33A G35A A39G,0.14
3,A6U A25C G30U C31A,0.13
4,G19C G22A C23U G36A,0.02
5,G1U A12C A25G G29C,0.01
6,A6C C13G G22A U28C,0.06
7,G17A C18G G33A,0.04
8,G17A C31G A41U,0.03
9,G17C G22U A25U G30U C37G,0.01
10,G5C U32C C45A,0.09
11,G2U A14C G30C G36U,0.01
12,A11G C13U G21U U34G,0.01
13,G7C C15U C46A,0.03
14,C8G A14U G30U G36A U38C,0.03
15,A4U G17A U34C,0.06
16,C23U G27A G33C,0.11
17,C3U A6C G17U A41G C45A,0.14
18,G1A C8G C15G G35C G44U,0.23
19,C8U A11C A12C,0.03
20,A4G C8G C45U,0.05
21,C23G U32A U43G,0.09
22,G5U U9A C10A A25U,0.02
23,A12C A16U A26U,0.02
24,C3A A12U A14C G22U G27A U32G G40C,0.11

row,Variant,self-cleavage
1,C3G A4C G7U A16C G17A C23A,0.78
2,A6G C15G G19A G30C G44C,0.01
3,A6C A16U U43A,0.04
4,A16G G17A C45A,0.03
5,G7U G30A C45G,0.06
6,U38C G40A C45G,0.04
7,A6G A16U C18A A25U G27C U34C,0.1
8,G35C C37U G44U,0.05
9,C3G C13A G29U,0.13
10,C15G G22A C46A,0.07
11,G2C G7A A25G,0.1
12,C8G C37A U43C C45U,0.01
13,G7C C8A C15G A39C,0.04
14,G1C U9A G19A G30U G33A G35A C46A,0.04
15,C10A A16C C18U U43A,0.03
16,C3A A4U U9G C42U C46U,0.09
17,G5U C10A C18G G22C G44U,0.03
18,C3A A16U G35A,0.12
19,A16G G22A C23U C42G,0.02
20,G7U G21U G40U,0.13
21,C3G G21C A25G G30U G40U,0.08
22,U9C C13U G29U C37G,0.01
23,A4C G17U U34G G40A,0.1
24,A11G U32A A41C,0.02

row,Variant,self-cleavage
1,G21U G27U C37A,0.02
2,G2U G7U G17U G19C,0.03
3,G1U G2C G29A G30A G44U,0.01
4,G17U A25C G35U A39C,0.03
5,C13A A25C U34A G44A,0.06
6,A25U G29U G30C G36C,0.02
7,G5A A11C C13A A14G G33A,0.02
8,G2U A24C G44U,0.03
9,G7C U9G A14C U38A C46A,0
10,A4G U20G U43A,0.25
11,G29C G30C C45G,0.2
12,A14G U20A G27A C45A C46G,0.08
13,A4G C13G G30A,0.06
14,A12G C42A G44A,0.04
15,G19A G21C U28G,0.47
16,C18U U34G C46A,0.03
17,C10A A14G G21A,0.04
18,A14G C23U A25U G27U G35C G44A,0.01
19,A12G G21U G29C G36U,0.01
20,A6C G7U C13A C15U,0.29
21,C10G A16G G22U A26U,0.02
22,A4U C13G G21C A39C,0.03
23,G2A U9A A14G G17C U28G,0.12
24,G5U U9A G22A U32G,0.06

row,Variant,self-cleavage
1,U9A A26U U34A A39G,0.1
2,G22U C31U G33C,0.05
3,C3G G7A C13U G19A G21A A26G,0.1
4,G5U A11G C45G,0.03
5,C8U C10G C13G,0
6,C31U G33U G44U,0.04
7,G2C A11C U28A,0.04
8,G1C G22U C37U G40U,0.08
9,G2A C15U C37G G40A,0.06
10,G2A A12C G17C G44A,0.04
11,C10A A24C C31A,0.03
12,A6U A16G C18A G36A,0.01
13,A6U A11U G44A,0.05
14,G17U G29U C37U A39U,0.14
15,A4U G22U U32C,0.05
16,C8G A16C C23U A24G,0.01
17,C15G C31G G35C C37U C46A,0.01
18,C42G G44A C46U,0.03
19,U9G C18U G30U G35C,0.09
20,G1U C18A C31G G33C A39G,0.03
21,G7A C8A G17A G22A G33U,0.24
22,G21C C23U C46G,0.51
23,A4C C37U G40A,0
